Source: PubChem BioAssay AID624255 (Broad Institute, 2012)
Screen size: about 77,000 compounds; about 4,600 (6%) were called active. The shares of active, inactive and inconclusive entries below differ from those in the screen.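 How the source made its calls: active means mean inhibition above about 93%, with at least 55% of replicates each passing it (limit read from the data, passing the limit was not always enough); inconclusive means only one of those two conditions holds; inactive means neither condition holds.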

Assay: T. cruzi intracellular proliferation inhibitors, primary screen, cell-based, beta-gal Tulahuen parasites, NIH3T3 host, luminescence (AID 624255)
Conditions: T. cruzi beta-gal in NIH3T3, GalScreen luminescence, 90 h; at 8.34 µM; active compounds read high

inhibition, active:
COc1ccc(NC(=O)Nc2ccc3c(c2)[C@@H]2C[C@H](CC(=O)NCCc4ccccc4)O[C@@H](CO)[C@@H]2O3)cc1 176%
C[C@H](CO)N1C[C@H](C)[C@H](CN(C)S(=O)(=O)c2ccc(Cl)cc2)OCCCC[C@H](C)Oc2ccc(NC(=O)Nc3cccc4ccccc34)cc2C1=O 98%
COc1ccc(S(=O)(=O)N2CCCCN3[C@H](CO)[C@H](c4ccc(-c5cccnc5)cc4)[C@@H]3C2)cc1 104%
OC[C@@H]1[C@H](c2ccc(-c3ccccc3F)cc2)[C@H]2CN(Cc3cncnc3)CCCCN12 110%
O=C(Nc1cccc(F)c1)N1CCCCN2[C@H](CO)[C@@H](c3ccc(-c4ccccc4F)cc3)[C@H]2C1 108%
O=C(C[C@@H]1CC[C@H]2[C@@H](COC[C@@H](O)CN2C(=O)c2ccncc2)O1)NCc1ccc(-c2ccccc2)cc1 117%

inhibition, inconclusive:
COc1cccc(-c2ccc([C@H]3[C@@H](CO)N(C(=O)c4ccccn4)[C@H]3C#N)cc2)c1 96.1%
COc1ccc(CN(C)C[C@H]2OCCCC[C@H](C)Oc3ccc(NC(=O)Nc4cccc5ccccc45)cc3C(=O)N([C@H](C)CO)C[C@H]2C)cc1 119%
C[C@H](CO)N1C[C@H](C)[C@H](CN(C)Cc2ccc(Cl)c(Cl)c2)Oc2ccc(N(C)C)cc2CC1=O 97.9%
COc1ccc(CN(C)C[C@H]2OCCCC[C@H](C)Oc3ccc(NC(=O)Nc4ccccc4)cc3C(=O)N([C@@H](C)CO)C[C@H]2C)cc1 97%
N#C[C@H]1[C@@H](c2ccc(-c3ccncc3)cc2)[C@@H](CO)N1C(=O)Cc1ccccc1 97%
C[C@H](CO)N1C[C@H](C)[C@@H](CN(C)C(=O)Nc2cccc(F)c2)OCc2cn(nn2)CCCC1=O 97.8%
C[C@@H]1CCCCO[C@@H](CN(C)Cc2ccc(Cl)c(Cl)c2)[C@H](C)CN([C@H](C)CO)C(=O)c2cc(NS(=O)(=O)c3cccs3)ccc2O1 127%
C[C@@H]1CCCCO[C@H](CN(C)Cc2ccc3c(c2)OCO3)[C@@H](C)CN([C@@H](C)CO)C(=O)c2cc(NC(=O)Nc3ccc(C(F)(F)F)cc3)ccc2O1 120%
C[C@H]1CCCCO[C@@H](CN(C)C(=O)Nc2ccc3c(c2)OCO3)[C@@H](C)CN([C@@H](C)CO)C(=O)c2cc(NC(=O)Cc3ccccc3)ccc2O1 98.7%
C[C@@H]1CCCCO[C@@H](CN(C)Cc2ccc(C(F)(F)F)cc2)[C@@H](C)CN([C@@H](C)CO)C(=O)c2cc(NC(=O)Nc3cccc4ccccc34)ccc2O1 123%
C[C@@H]1CCCCO[C@H](CN(C)C(=O)Nc2ccc3c(c2)OCO3)[C@H](C)CN([C@@H](C)CO)C(=O)c2cc(NC(=O)Cc3ccccc3)ccc2O1 98%
Cc1ccc(-c2ccc([C@@H]3[C@H]4CN(C(=O)Nc5ccccc5)CCCCN4[C@H]3CO)cc2)cc1 99.9%
C[C@@H]1CN([C@@H](C)CO)C(=O)c2cccc(NC(=O)Nc3ccc(C(F)(F)F)cc3)c2O[C@@H]1CN(C)Cc1ccc2c(c1)OCO2 96.8%
C[C@@H]1CN([C@@H](C)CO)C(=O)c2cccc(NC(=O)c3ccc(-c4nccs4)cc3)c2O[C@@H]1CN(C)Cc1ccc(C(F)(F)F)cc1 117%
C[C@H](CO)N1C[C@H](C)[C@@H](CN(C)Cc2cncnc2)Oc2ncc(C#Cc3ccccn3)cc2C1=O 97.3%
C[C@@H]1CCCCO[C@@H](CN(C)CC2CCCCC2)[C@H](C)CN([C@H](C)CO)C(=O)c2cc(NC(=O)Nc3ccc(C(F)(F)F)cc3)ccc2O1 85%
C[C@@H]1CN([C@H](C)CO)C(=O)c2cc(NC(=O)C3CCCCC3)ccc2O[C@@H](C)CCCCO[C@H]1CN(C)Cc1ccc(C(F)(F)F)cc1 114%
C[C@@H]1CN([C@@H](C)CO)C(=O)c2cc(NS(=O)(=O)c3ccc(Cl)cc3)ccc2O[C@@H](C)CCCCO[C@H]1CN(C)Cc1ccc(C(F)(F)F)cc1 96.2%
CCCNC(=O)N1C[C@H](C)[C@@H](OC)CN(C)C(=O)c2cc(NC(=O)CC)ccc2OC[C@@H]1C 97.5%
COc1ccc(CN(C)C[C@@H]2OCCCC[C@H](C)Oc3ccc(NC(=O)Nc4cccc5ccccc45)cc3C(=O)N([C@@H](C)CO)C[C@@H]2C)cc1 118%
CC(=O)NC[C@@H]1[C@H](c2ccccc2)[C@H](CO)N1C(=O)Cc1cccnc1 98.2%
COc1ccc(S(=O)(=O)Nc2ccc3c(c2)C(=O)N([C@@H](C)CO)C[C@H](C)[C@@H](CN(C)S(=O)(=O)c2ccc(OC)cc2)OCCCC[C@H](C)O3)cc1 84%
C[C@@H]1CCCCO[C@@H](CN(C)Cc2ccc(Cl)c(Cl)c2)[C@@H](C)CN([C@@H](C)CO)C(=O)c2cc(NS(=O)(=O)c3cccs3)ccc2O1 128%
O=S(=O)(c1ccccc1)N1CC[C@@H]2[C@@H](CO)Nc3ccc(-c4ccccc4F)cc3[C@@H]21 101%
COc1ccc(S(=O)(=O)N(C)C[C@@H]2Oc3cc(Br)ccc3S(=O)(=O)N([C@H](C)CO)C[C@@H]2C)cc1 97%
CC(C)NC(=O)N(C)C[C@@H]1Oc2cc(C#Cc3ccccn3)ccc2S(=O)(=O)N([C@@H](C)CO)C[C@@H]1C 97.8%
CN1c2ccc(Br)cc2[C@@H]2[C@@H](CCN2S(=O)(=O)c2cccc(F)c2)[C@@H]1CO 112%
C[C@@H]1CCCCO[C@H](CN(C)C(=O)C2CCCCC2)[C@H](C)CN([C@H](C)CO)C(=O)c2cc(NS(=O)(=O)c3ccc(Cl)cc3)ccc2O1 115%
C[C@H]1CCCCO[C@@H](CN(C)S(=O)(=O)c2cccs2)[C@@H](C)CN([C@@H](C)CO)C(=O)c2cc(NC(=O)Nc3ccc(C(F)(F)F)cc3)ccc2O1 95.3%
C[C@@H]1CN([C@H](C)CO)S(=O)(=O)c2ccc(-c3cccc(F)c3)cc2O[C@H]1CN(C)S(=O)(=O)c1ccccc1 102%
C[C@H]1CN([C@@H](C)CO)C(=O)c2ccccc2-c2ccccc2CO[C@@H]1CN(C)Cc1ccncc1 95.3%
C[C@@H]1CCCCO[C@H](CN(C)Cc2ccc(C(F)(F)F)cc2)[C@@H](C)CN([C@H](C)CO)C(=O)c2cc(NC(=O)Nc3cccc4ccccc34)ccc2O1 107%
N#C[C@@H]1N[C@@H](CO)[C@@H]1c1ccc(-c2ccccc2F)cc1 96.5%
O=C(Nc1ccc(C(F)(F)F)cc1)Nc1ccc2c(c1)[C@H]1C[C@@H](CC(=O)N3CCc4ccccc4C3)O[C@H](CO)[C@H]1O2 101%

inhibition, inactive:
COc1ccc(S(=O)(=O)N[C@H]2C=C[C@@H](CC(=O)O)O[C@@H]2CO)cc1 8.59%
CC(=O)Nc1ccc2c(c1)C(=O)N(C)[C@@H]1CC[C@H](CC(=O)NC3CCCCC3)O[C@H]1CO2 -34.5%
C[C@@H]1CN([C@H](C)CO)S(=O)(=O)c2ccc(C#CCC3CCCC3)cc2O[C@H]1CN(C)C(=O)c1ccccn1 48.1%
CC(C)C#Cc1ccc2c(c1)O[C@@H](CN(C)CC1CCOCC1)[C@@H](C)CN([C@@H](C)CO)S2(=O)=O 51.5%
CCS(=O)(=O)Nc1ccc2c(c1)C(=O)N(C)[C@H]1CC[C@@H](CC(=O)OC)O[C@@H]1CO2 11.2%
C[C@H](CO)N1C[C@H](C)[C@H](CN(C)Cc2ccccc2)OCCCC[C@H](C)Oc2ccc(NC(=O)Nc3ccc4c(c3)OCO4)cc2C1=O 88.7%
CC(C)C#Cc1cnc2c(c1)C(=O)N([C@H](C)CO)C[C@@H](C)[C@H](CN(C)C(=O)C1CCC1)O2 31.3%
Cc1noc(C)c1NC(=O)N(C)C[C@@H]1OCCCC[C@@H](C)Oc2ccc(NC(=O)Nc3ccc(C(F)(F)F)cc3)cc2C(=O)N([C@@H](C)CO)C[C@H]1C 67.2%
CN1c2ccc(-c3ccc(C#N)cc3)cc2[C@H]2[C@H](CCN2C(=O)c2cccc(F)c2)[C@@H]1CO 78.3%
CC(C)NC(=O)Nc1ccc2c(c1)C(=O)N([C@H](C)CO)C[C@@H](C)[C@H](CN(C)Cc1ccccc1)OCCCC[C@H](C)O2 28.9%
C[C@H](O)C#Cc1ccc2c(c1)O[C@@H](CN(C)C(=O)c1ccncc1)[C@H](C)CN([C@H](C)CO)S2(=O)=O -26.5%
C[C@@H]1CCCCO[C@H](CN(C)C)[C@H](C)CN([C@@H](C)CO)C(=O)c2cc(NC(=O)Nc3ccccc3)ccc2O1 6.5%
C[C@@H](NC(=O)C[C@H]1CC[C@@H](NC(=O)C2CCOCC2)[C@H](CO)O1)c1ccccc1 31.9%
O=C(Cc1ccccn1)N[C@@H]1C=C[C@@H](CC(=O)N2CCCCC2)O[C@@H]1CO -72.1%
CCCNC(=O)[C@H]1[C@H](CO)[C@H]2Cn3c(ccc(-c4cccnc4)c3=O)[C@H]2N1C(=O)c1ccccc1F 13.4%
C[C@@H]1CN([C@H](C)CO)S(=O)(=O)c2ccc(C#Cc3ccccc3)cc2O[C@@H]1CN(C)S(=O)(=O)c1cn(C)cn1 42%
